In PMC9416004, “A Versatile Class of 1,4,4-Trisubstituted Piperidines Block Coronavirus Replication In Vitro” (Pharmaceuticals, 2022):

Molecular target: SARS-CoV-2 RdRp (nsp12 in complex with nsp7 and nsp8) (Severe acute respiratory syndrome coronavirus 2, UniProt P0DTD1)
Settings: highest concentration tested: 100 µM

Question: With `COC(=O)C[C@H](NC(=O)OC(C)(C)C)C(=O)N(Cc1ccccc1)C1(C(=O)NCc2ccccc2)CCN(Cc2ccccc2)CC1` [Compound 1] as the compound, how does the “inhibition of RNA synthesis by the RdRp” value read?
Answer: did not detect any significant inhibition

Question: Which “inhibition of RNA synthesis by the RdRp” value does the source give for `COC(=O)C[C@H](NC(=O)OCc1ccccc1)C(=O)N(Cc1ccccc1)C1(C(=O)NCc2ccccc2)CCN(Cc2ccccc2)CC1` [Compound 33] here?
Answer: did not detect any significant inhibition

Question: `COC(=O)C[C@H](NC(=O)OCc1ccccc1)C(=O)N(Cc1ccc(F)cc1)C1(C(=O)NCc2ccccc2)CCN(Cc2ccccc2)CC1` [Compound 34] was tested. Which “inhibition of RNA synthesis by the RdRp” value did it give?
Answer: did not detect any significant inhibition

Question: Which “inhibition of RNA synthesis by the RdRp” value does the source give for `CC(C)(C)OC(=O)N[C@@H](Cc1ccccc1)C(=O)N(Cc1ccccc1)C1(C(=O)NCc2ccccc2)CCN(Cc2ccccc2)CC1` [Compound 46] here?
Answer: did not detect any significant inhibition

Question: How did the “inhibition of RNA synthesis by the RdRp” value turn out when `Cc1ccc(CC(NC(=O)OC(C)(C)C)C(=O)N(Cc2ccccc2)C2(C(=O)NCc3ccccc3)CCN(Cc3ccccc3)CC2)cc1` (stereo not shown) [Compound 52, Tert-butyl(1-(benzyl(1-benzyl-4-benzylcarbamoylpiperidin-4-yl)amino)-1-oxo-3-(p-tolyl)propan-2-yl)carbamate] was run?
Answer: did not detect any significant inhibition

Question: `CC(C)(C)OC(=O)NC(Cc1ccccc1)C(=O)N(Cc1ccccc1)C1(C(=O)NCc2ccccc2)CCN(Cc2ccc(F)cc2)CC1` (stereo not shown) [Compound 60, Tert-butyl(1-(benzyl(4-benzylcarbamoyl-1-(4-fluorobenzyl)piperidin-4-yl)amino)-1-oxo-3-phenylpropan-2-yl)carbamate] was tested. Which “inhibition of RNA synthesis by the RdRp” value did it give?
Answer: did not detect any significant inhibition

Question: With `CC(C)(C)OC(=O)NC(Cc1ccccc1)C(=O)N(Cc1ccccc1)C1(C(=O)NCc2ccccc2)CCN(Cc2ccc([N+](=O)[O-])cc2)CC1` (stereo not shown) [Compound 63, Tert-butyl(1-(benzyl(4-benzylcarbamoyl-1-(4-nitrobenzyl)piperidin-4-yl)amino)-1-oxo-3-phenylpropan-2-yl)carbamate] as the compound, how does the “inhibition of RNA synthesis by the RdRp” value read?
Answer: did not detect any significant inhibition
